# Assay results from PubChem BioAssay AID624418 (National Center for Advancing Translational Sciences (NCATS), 2012).
# Out of some 410,000 compounds screened, about 530 (0.13%) were called active. Inconclusive results, whose numbers are uncertain, are shown with a selection of clear calls. The call rests on the fitted dose curve; in most records, active means well fitted inhibition curve with a large enough effect; inconclusive means small, poorly fitted or top-dose-only effect, or another doubt; inactive means no such curve, though single readings can be large or run the other way. Potencies beside an inconclusive call are fits to weak or partial responses and may not hold up.
# Experiment: qHTS of GLP-1 Receptor Inverse Agonists: Cytotox Screen
# Details: HEK293 cAMP-luciferase reporter cells, luminescence, 24 h; series mostly up to 38.3 µM
# Method in brief: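 Cells in DMEM/10% Nu serum/1% pen-strep, 1536-well format. Pre-incubated 12 h, dosed with 23 nL compound, incubated a further 24 h. Luciferase detection, 12 min at room temp, luminescence.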
# Potency means the concentration at half of the fitted maximal effect.
row,Structure (SMILES),Potency
1,COc1ccc(OC)c(CNc2nc3ccccc3n2CCN2CCCCC2)c1,"inconclusive: 7.94 µM [inhibitor, partial curve, poor fit]"
2,N#C/C(=C\c1ccc(-c2ccc(C(=O)O)cc2)o1)C(=O)NCC1CCCO1 (stereo not drawn),"inconclusive: 12.6 µM [inhibitor, single point]"
3,C/C=C\C=C/C(=O)Nc1cccc(C2=NOC3(C2)C[C@@H](C(N)=O)N(C(=O)[C@H]2CCC(=O)N2)C3)c1 (stereo partly drawn),"inconclusive: 0.501 µM [inhibitor, full curve, poor fit]"
4,O=C(c1cc(-c2cccc(Cl)c2)on1)N1CCOCC1,inactive
5,O=C(CSCc1cnn(-c2ccccc2)c1-n1cccc1)NCc1ccccc1F,inactive
6,CC(=O)Nc1ccc(Nc2ccc([N+](=O)[O-])cn2)cc1,"inconclusive: 3.98 µM [inhibitor, single point]"
7,COc1ccc(C(=O)Nc2nc3ccc(OC)cc3s2)cc1,"inconclusive: 11.2 µM [inhibitor, partial curve, poor fit]"
8,CCOC(=O)c1c(C)[nH]c(N=Nc2cccc(OC)c2)c1C,"inconclusive: 20 µM [inhibitor, single point]"
9,CCOC(=O)CCCCCC(=O)Nc1ccc2c(c1)C(=O)N([C@@H](C)CO)C[C@H](C)[C@H](CN(C)S(=O)(=O)c1ccc(OC)cc1)OCCCC[C@H](C)O2,"inconclusive: 1.58 µM [inhibitor, partial curve, poor fit]"
10,C/C(=N\Nc1nc2c(s1)CCCC2)c1ccccc1,"inconclusive: 28.2 µM [inhibitor, single point]"
11,O=C(NC1CC2CCCC(C1)N2C(=O)Nc1ccc(Cl)c(C(F)(F)F)c1)C1CC1 (stereo not drawn),inactive
12,Cc1sc2ncn(CC(=O)NCCCC(=O)N3CCC(C)CC3)c(=O)c2c1C,inactive
13,Cc1ccc(N(C(C)C(=O)N2CCC(C)CC2)S(C)(=O)=O)cc1C (stereo not drawn),"inconclusive: 17.8 µM [inhibitor, partial curve, poor fit]"
14,CCOc1cc(NCCN2CCOCC2)c([N+](=O)[O-])cc1OCC,"inconclusive: 10 µM [inhibitor, partial curve, poor fit]"
15,CCOc1cc(/C=C2\C(=O)ON=C2c2ccccc2)cc(Br)c1O,"inconclusive: 28.2 µM [inhibitor, single point]"
16,O=C(NCc1ccc(-c2csnn2)cc1)c1cc(Cl)cc(Cl)c1,inactive
17,O=C(NN=C1CCCC1)c1[nH]c2ccc(Br)cc2c1-c1ccccc1,"inconclusive: 2.24 µM [inhibitor, partial curve, poor fit]"
18,O=C(N/N=C/c1[nH]c2ccccc2c1Cl)c1cccc(Br)c1,inactive
19,COc1cccc(N2CCN(C(=O)c3ccc(CS(=O)c4cccc(Cl)c4)o3)CC2)c1 (stereo not drawn),"inconclusive: 1.58 µM [inhibitor, partial curve, poor fit]"
20,CCOc1ccc([C@@H]2CC=C(C(=O)O)[C@H](c3ccc(F)cc3)N2S(=O)(=O)c2ccc(C)cc2)cc1,"inconclusive: 10 µM [inhibitor, single point]"
21,CC(C)N(CCn1c(=S)[nH]c2ccccc2c1=O)C(C)C,inactive
22,CNC(=S)N/N=C/c1ccc(N(C)C)cc1,"inconclusive: 12.6 µM [inhibitor, single point]"
23,N/C(=N\OC(=O)c1ccco1)c1ccc(Br)cc1,inactive

row,Structure (SMILES),Potency
1,Nc1c(C(=O)NCCc2ccccc2)nnn1Cc1ccc(Br)cc1F,"inconclusive: 28.2 µM [inhibitor, single point]"
2,O=C(Nc1nccs1)c1ccc(Br)s1,inactive
3,O=C(CCCCn1c(=O)[nH]c2ccccc2c1=O)N1CCN(c2cccc(C(F)(F)F)c2)CC1,"inconclusive: 11.2 µM [inhibitor, single point]"
4,COc1ccccc1OCCCCN1CCN(C(c2ccccc2)c2ccccc2)CC1,"inconclusive: 11.2 µM [inhibitor, single point]"
5,NNC(=S)NC1CCCCC1,"inconclusive: 28.2 µM [inhibitor, single point]"
6,Brc1cccc(CNc2nc3ccccc3n2CCN2CCCCC2)c1,"inconclusive: 28.2 µM [inhibitor, single point]"
7,CC1=C(C(=O)N(C)C)CC(CC(=O)NC2CCCC2)C(=O)N1CCCN1CCCC1=O (stereo not drawn),"inconclusive: 0.562 µM [inhibitor, partial curve, poor fit]"
8,CN(CC(=O)NCc1ccc(F)cc1)CC(=O)Nc1ccc(Cl)c(C(F)(F)F)c1,"inconclusive: 10 µM [inhibitor, single point]"
9,COc1ccc(CC(=O)Nc2cc(-c3cn4cccnc4n3)ccc2C)cc1OC,inactive
10,N#CCCN1CCN(CCC#N)C1=S,inactive
11,COc1cc(C2C3=C(CCCC3=O)Nc3ccc4ncccc4c32)ccc1O (stereo not drawn),"inconclusive: 8.91 µM [inhibitor, partial curve, poor fit]"
12,CCOC(=O)N1CCN(S(=O)(=O)N2CCCC(C(=O)NCCc3ccc(Cl)cc3)C2)CC1 (stereo not drawn),"inconclusive: 28.2 µM [inhibitor, single point]"
13,CCOc1ccc(NC(=S)Nc2cc(-c3ccccc3)[nH]n2)cc1,"inconclusive: 11.2 µM [inhibitor, single point]"
14,CCOc1ccc(CNC(=S)N/N=C/c2ccncc2)cc1,"inconclusive: 12.6 µM [inhibitor, single point]"
15,COc1ccc(CCNC(=S)Nc2ccccc2)cc1,"inconclusive: 28.2 µM [inhibitor, single point]"
16,Cn1c(O)c(C2=c3ccccc3=NC2=O)sc1=Nc1ccc(Cl)cc1,inactive
17,Cc1cccc(-c2noc(CCCC(=O)Nc3ccc(C(N)=O)cc3)n2)c1,inactive
18,CCOC(=O)C1=C(O)C(=O)N(Cc2ccc(C(C)(C)C)cc2)CC1,"inconclusive: 0.501 µM [inhibitor, full curve, poor fit]"
19,Cc1cc(/C=C2/C(=O)NN(c3ccccc3)C2=O)c(C)n1-c1cccc(O)c1,"inconclusive: 10 µM [inhibitor, partial curve, poor fit]"
20,CN(C)CCOc1nc(-c2ccccc2)nc2c1oc1ccccc12,"inconclusive: 22.4 µM [inhibitor, single point]"
21,Cc1cccc(-n2c(CCc3ccccc3)nnc2SCC(=O)c2ccccc2)c1,"inconclusive: 11.2 µM [inhibitor, single point]"
22,O=C(NCc1ccccc1)c1nc(S(=O)(=O)Cc2ccc(F)cc2)ncc1Cl,"inconclusive: 12.6 µM [inhibitor, single point]"
23,O=C(NNC(=O)c1ccc2ccccc2c1O)NC1CCCCC1,inactive

row,Structure (SMILES),Potency
1,CCOc1ccc(-c2cn3c(n2)sc2cc(C(=O)NCCc4ccc(OC)cc4OC)ccc23)cc1,inactive
2,CCOC(=O)Cc1c(C)nc2c(-c3ccc(Cl)cc3)c(C)[nH]n2c1=O,"inconclusive: 7.08 µM [inhibitor, partial curve]"
3,O=C(NC(=S)Nc1ccc2c(c1)OCCO2)c1cccc(Br)c1,"inconclusive: 11.2 µM [inhibitor, partial curve, poor fit]"
4,COc1ccc(N(Cc2ccccc2)S(=O)(=O)c2cccc(C(=O)NC3=NCCS3)c2)cc1,inactive
5,CC1CCN(C(=O)C2CCCN(c3ncnc4c3nc3n4CCCCC3)C2)CC1 (stereo not drawn),inactive
6,CCC(C)NC(=O)c1ccccc1NC(=O)CN1C(=O)c2ccccc2S1(=O)=O (stereo not drawn),"inconclusive: 7.08 µM [inhibitor, partial curve, poor fit]"
7,CCOC(=O)CNC(=O)c1sc(NC(=O)c2cccc(F)c2)nc1C,inactive
8,COc1ccc(C(=O)Nc2ccccc2C(=O)NCCN2CCOCC2)cc1,"inconclusive: 2.82 µM [inhibitor, full curve]"
9,O=C(c1ccc(-c2nc3ccccc3s2)o1)N1CCN(c2ccccc2O)CC1,"inconclusive: 28.2 µM [inhibitor, single point]"
10,O=C(NNC1=Nc2ccccc2SC1)c1ccc(F)cc1,"inconclusive: 20 µM [inhibitor, single point]"
11,CN(Cc1ccccc1)c1nnc(NC(=O)Nc2cccc(Br)c2)s1,inactive
12,COc1cc(/C=C2\C(=O)ON=C2c2ccccc2)cc(Cl)c1O,inactive
13,Cc1ccc(S(=O)(=O)N/N=C/c2cccc3nccnc23)cc1,"inconclusive: 0.501 µM [inhibitor, full curve, poor fit]"
14,COc1cccc(CNC(=O)c2cccnc2Sc2ccccc2)c1,inactive
15,COc1ccc(Cn2c(=O)n(-c3ccc(F)c(Cl)c3)c(=O)c3c2c2cc(OC)ccc2n3C)cc1,inactive
16,CC(=O)c1ccc(NC(=O)C2CCCO2)cc1 (stereo not drawn),inactive
17,CCS(=O)(=O)N1CCN(c2ccc([N+](=O)[O-])c(NCc3cccnc3)c2)CC1,"inconclusive: 10 µM [inhibitor, partial curve]"
18,O=C(Nc1ccc(Cl)cc1)Nc1ccccc1Sc1ncc([N+](=O)[O-])s1,"inconclusive: 22.4 µM [inhibitor, single point]"
19,COc1cc(C(=O)N/N=C/c2ccc3c(c2)c2ccccc2n3C)ccc1O,"inconclusive: 20 µM [inhibitor, single point]"
20,Cc1ccc(C)c(NC(=S)NCCSc2ccc(Cl)cc2)c1,"inconclusive: 8.91 µM [inhibitor, partial curve]"
21,CCc1cccc(NC(=S)N2CCC(c3ccccc3)C2)c1 (stereo not drawn),"inconclusive: 28.2 µM [inhibitor, single point]"
22,Cc1ccc2nsnc2c1S(=O)(=O)N(CCO)Cc1cc2cc3c(cc2[nH]c1=O)OCCO3,"inconclusive: 28.2 µM [inhibitor, single point]"
